Reference: the RNAGym collection of RNA variant scans (doi:10.1073/pnas.2313332121)
Variants at the background level are over-represented here.

B1: TPR 5TU (parent)
chain: GGAUCUUCUCGAUCUAACAAAAAAGACAAAUCUGCCACAAAGCUUGAGAGCAUCUUCGGAUGCAGAGGCGGCAGCCUUCGGUGGCGCGAUAGCGCCAACGUUCUCAACUAUGACACGCAAAACGCGUGCUCCGUUGAAUGGAGUUUAUCAUG

Variants of: B1
Assay: polymerase ribozyme fitness, log enrichment relative to wild type (log ratio); higher = more active; in vitro selection for triplet polymerase activity
Method in brief: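 To select mutant libraries of each subunit of a heterodimeric triplet polymerase ribozyme, built by PCR and transcribed, each was annealed with a biotinylated primer, partner subunit and triplets, then incubated frozen at −7 °C. Extended constructs were gel-excised, captured on streptavidin beads and amplified by RT-PCR, in one round carried out in triplicate. Illumina sequencing of input and output libraries kept genotypes with ≥10 input reads and ≥1 read per output. Fitness is the base-2 logarithm of genotype enrichment relative to wild-type enrichment, from inverse-variance-weighted replicate averages.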

Variant	polymerase ribozyme fitness (log ratio)
GGAUCUUCUCGAUCUAACAAAAAAGACAAAUCUGCCACAAAGCUUGAGAGCAUCUUCGGGUGCAGAGGCGGCAGCCUUCGGUGGCGCGAUAGCGCCAACGUUCUCAACUGUGACACGCAAAACGCGUGCUCCGUUAAAUGGAGUUUAUCAUG [A60G A110G G136A]	-2.56
GGAUCUUCUCGAUCUAACAAAAAAGACAAAUCUGCCACAAAGCUUGAGAGCAUCUUCGGGUGCAGAGGAGGCAGCUUUCGGUGGCGCGAUAGUGCCAAUGUUCUCAACUAUGACUAGCAAAACGCGUGCUCCGUUGAAUGGAGUUUAUCAUG [A60G C69A C76U C93U C99U A115U C116A]	≤ -4.2
GGAUCUUCUCGAUCUAACAAAAAAGACAAAUCUGCCACAAAGCUUGAGAGCAUCUUCGGGUGCAGAGGAGGCAGCCUUCGGUGGCGCAAUAGCGGCAACGAUCUCCGCUAUGACACGCCAAACGCGUGCUCCGUUGAAUGGAGUUUAACAUG [A60G C69A G88A C95G U101A A106C A107G A119C U148A]	≤ -4.2
GGAUCUUCUCGAUCUAACAAAAAAGACAAAUCUGCCACAAAGCUUGAGAGCAUCUUCGGGUGCAGAGGCGGUAGCCUUCGGUGGCGGGAUAGCGCCAACGUUCUCAGCUAUGACACGCGAAACGCGUGCUCCGUUGAAUGGAGUUUAUCAUG [A60G C72U C87G A107G A119G]	≤ -4.2
GGAUCUUCUCGAUCUAACAAAAAAGACAAAUCUGCCACAAAGCUUGAGAGCAUCUUCGGGUGCAGAGGCGGCAGUCUUGGGUGGCGCGAUAGCGCCAACGUUCUCAACUAUGACACGCAAAACGCGUGCUCCGUUGAAUGGUGUUUAUCAUG [A60G C75U C79G A142U]	≤ -4.2
GGAUCUUCUCGAUCUAACAAAAAAGACAAAUCUGCCACAAAGCUUGAGAGCAUCUUCGGGUGCAGAGGCGGCAGCAUUCGGUGGCGCGAUAGCGCCAACGUUCUCAACUAUGACACGCAAAACGCGUGCUCCGUUGAAUGGAGUAUAUCAGG [A60G C76A U145A U151G]	≤ -4.2
GGAUCUUCUCGAUCUAACAAAAAAGACAAAUCUGCCACAAAGCUUGAGAGCAUCUUCGGGUGCAGAGGCGGCAGCCUUGGGUGGCGCGAUAGCGCCAACGUUCUCAACUAUGACACGCAAAACGCGUGCUCCGUUGAAUGGAGUUUAUCAUG [A60G C79G]	-3.75
GGAUCUUCUCGAUCUAACAAAAAAGACAAAUCUGCCACAAAGCUUGAGAGCAUCUUCGGGUGCAGAGGCGGCAGCCUUCGGUGGAGCGAUAGCGCCAACGUUCUCAACUAUGACACGCAAAACGCGUGCUCCGUUGAAUGGAGUUUAUCAUG [A60G C85A]	-0.96
GGAUCUUCUCGAUCUAACAAAAAAGACAAAUCUGCCACAAAGCUUGAGAGCAUCUUCGGGUGCAGAGGCGGCAGCCUUCGGUGGAGCGAUAGCGCCAACGGUCUCAACUAUGACACGCAAAACGCGUGCUCCGUUGAAUGGAGUUUAUCAUG [A60G C85A U101G]	-2.94
GGAUCUUCUCGAUCUAACAAAAAAGACAAAUCUGCCACAAAGCUUGAGAGCAUCUUCGGGUGCAGAGGCGGCAGCCUUCGGUGGCGAGAUAGCGCCAACGUUCUCAACAAUGACACGCAAAACGCGUGCUCGGUUGAAUGGAGUUUAUCAUG [A60G C87A U109A C132G]	≤ -4.2
GGAUCUUCUCGAUCUAACAAAAAAGACAAAUCUGCCACAAAGCUUGAGAGCAUCUUCGGGUGCAGAGGCGGCAGCCUUCGGUGGCGGGAUAGCGCCAUCGUUCUCAACUAUGACACGCAAAACGCGUGCUCCGUUGAAUGGAGUUUAUCAUG [A60G C87G A98U]	≤ -4.2
GGAUCUUCUCGAUCUAACAAAAAAGACAAAUCUGCCACAAAGCUUGAGAGCAUCUUCGGGUGCAGAGGCGGCAGCCUUCGGUGGCGCGAUAGGGCCAACGUUCUCAACUAUGACACGCAAAACGCGUGCUCCGUUGAAUGGAGUUUGUCAUG [A60G C93G A147G]	-4.1
GGAUCUUCUCGAUCUAACAAAAAAGACAAAUCUGCCACAAAGCUUGAGAGCAUCUUCGGGUGCAGAGGCGGCAGCCUUCGGUGGCGCGAUAGUGCCAACGUUCGCAACUAUGACACGCAAAACGCGUGCUCCGUUGAAUGGACUUUAUCAUG [A60G C93U U104G G143C]	-3.09
GGAUCUUCUCGAUCUAACAAAAAAGACAAAUCUGCCACAAAGCUUGAGAGCAUCUUCGGGUGCAGAGGCGGCAGCCUUCGGUGGCGCGAUAGUGCCAACGUUCGCAACUAGGAUACGCAAAACGCGUGCUCCGUUGAAUGGAGUUUAUCAUG [A60G C93U U104G U111G C114U]	≤ -4.2
GGAUCUUCUCGAUCUAACAAAAAAGACAAAUCUGCCACAAAGCUUGAGAGCAUCUUCGGGUGCAGAGGCGGCAGCCUUCGGUGGCGCGAUAGCGACAACGCUCUCAACUAUGACACGCAAAACGCGUGCUCCGUUGAAUGGAGUUUAUCAUG [A60G C95A U101C]	0.139
GGAUCUUCUCGAUCUAACAAAAAAGACAAAUCUGCCACAAAGCUUGAGAGCAUCUUCGGGUGCAGAGGCGGCAGCCUUCGGUGGCGCGAUAGCGUAAACGUUCUCAACUAUGACACGCAAAACGCGUGCUCCGUUGAAUGGAGUUUAUCAUG [A60G C95U C96A]	-1.03
GGAUCUUCUCGAUCUAACAAAAAAGACAAAUCUGCCACAAAGCUUGAGAGCAUCUUCGGGUGCAGAGGCGGCAGCCUUCGGUGGCGCGAUAGCGCGAACGUUCUCAACUAUGACACGCAAAACGCGUGCUCCGUUGAAUGGAGUUUAUCAUG [A60G C96G]	-0.394
GGAUCUUCUCGAUCUAACAAAAAAGACAAAUCUGCCACAAAGCUUGAGAGCAUCUUCGGGUGCAGAGGCGGCAGCCUUCGGUGGCGCGAUAGCGCUAACGUUCUCAACUAUGACACGCAAAACGCGUGCUCCGUUGAAUGGAGUUUAUCAUG [A60G C96U]	0.674
GGAUCUUCUCGAUCUAACAAAAAAGACAAAUCUGCCACAAAGCUUGAGAGCAUCUUCGGGUGCAGAGGCGGCAGCCUUCGGUGGCGCGAUAGCGCUAACGGUCUCAACUAUGACACGCAAAACGCGUACUCCGUUGAAUGGAGUUUAUCAUG [A60G C96U U101G G128A]	-3.75

Variant	polymerase ribozyme fitness (log ratio)
GGAUCUUCUCGAUCUAACAAAAAAGACAAAUCUGCCACAAAGCUUGAGAGCAUCUUCGGGUGCAGAGGCGGCAGCCUUCGGUGGCGCGAUAGCGCCAACGUUCUCAACUAUGAUACGCAAAACGCGUGCUCCGUUGAAUGGAGUUUAUCAUG [A60G C114U]	-1.83
GGAUCUUCUCGAUCUAACAAAAAAGACAAAUCUGCCACAAAGCUUGAGAGCAUCUUCGGGUGCACAGGCGGCAGCCUUCGGUGGCGCGAUAGCGCCAACGUUCUCAACUAUGACACGCAAAACGCGUGCUCCGUUGAAUGGAGUUUAUCAUG [A60G G65C]	≤ -4.2
GGAUCUUCUCGAUCUAACAAAAAAGACAAAUCUGCCACAAAGCUUGAGAGCAUCUUCGGGUGCAGAAGCGGCAGCCUGCGGUGGCGCGAUAGCGCGAACGUUCUCAACUAUGACACGCAUAACGCGUGCUCCGUUGAAUUGAGUUUGUCAUG [A60G G67A U78G C96G A120U G140U A147G]	≤ -4.2
GGAUCUUCUCGAUCUAACAAAAAAGACAAAUCUGCCACAAAGCUUGAGAGCAUCUUCGGGUGCAGAUGCGGCAGCCUUCGGUGGCGCGAUAGGGCCAACGUCCUCAACUAUGACACGCAAAACGCGUGCUCCGUUGAAUGGAGUUUAUCAUG [A60G G67U C93G U102C]	≤ -4.2
GGAUCUUCUCGAUCUAACAAAAAAGACAAAUCUGCCACAAAGCUUGAGAGCAUCUUCGGGUGCAGAUGCGGCAGCCUUCGGUGGCACGAUAGCGCCAACGUUCUCAACUAUGACACGCAAAACGCGUGCUCCGUUGAAUGGAGUUUAUCAUG [A60G G67U G86A]	-4.13
GGAUCUUCUCGAUCUAACAAAAAAGACAAAUCUGCCACAAAGCUUGAGAGCAUCUUCGGGUGCAGAGUCGGCAGCGUUCGGUGGCUCGAUAGCGCCAAUGUUCUCAACUAUGACACGCAAAACGCGUGCUCCGUUGAAUGGAGUUUAUCAUG [A60G G68U C76G G86U C99U]	≤ -4.2
GGAUCUUCUCGAUCUAACAAAAAAGACAAAUCUGCCACAAAGCUUGAGAGCAUCUUCGGGUGCAGAGGCCGCAGCCAUCGGUGGCGCGAUAGCGCCAACGUUCUCAACUAUGACACGCAAAACGCGUGCUCCGUGGAAUGGAGUUUCUCAUG [A60G G70C U77A U135G A147C]	≤ -4.2
GGAUCUUCUCGAUCUAACAAAAAAGACAAAUCUGCCACAAAGCUUGAGAGCAUCUUCGGGUGCAGAGGCGACAGACUUCGGUGGCGCGAUAGUGCCAACGUUCUCAACUAUGACACGGAAAACGCGUGCUCCGUUGAAUGGAGUUUAUCAUG [A60G G71A C75A C93U C118G]	≤ -4.2
GGAUCUUCUCGAUCUAACAAAAAAGACAAAUCUGCCACAAAGCUUGAGAGCAUCUUCGGGUGCAGAGGCGACAGCCUUCGGUGGCGCGAUAACGCCAACGUUCUCAACUAUGACACGCAAAACGCGUGCUCCGUUGAAUGGAUUUUAUCAUG [A60G G71A G92A G143U]	≤ -4.2
GGAUCUUCUCGAUCUAACAAAAAAGACAAAUCUGCCACAAAGCUUGAGAGCAUCUUCGGGUGCAGAGGCGUCAGCCUUCGGUGGCACGAUUGCGCCAACGGUCUCAACUAUGACACGCAAAAAGCGUGCUCCGUUGAAUGGAGUUGAUCAUG [A60G G71U G86A A91U U101G C123A U146G]	≤ -4.2
GGAUCUUCUCGAUCUAACAAAAAAGACAAAUCUGCCACAAAGCUUGAGAGCAUCUUCGGGUGCAGAGGCGGCAACCUUCGGUGGCGCGAUAGCGCCAACGUUCUCAACUAUGACACGCAAAACGCGUGCUCCGUUGAAUGGAGUUUAUCAUG [A60G G74A]	-3.26
GGAUCUUCUCGAUCUAACAAAAAAGACAAAUCUGCCACAAAGCUUGAGAGCAUCUUCGGGUGCAGAGGCGGCAACCUUCGGUGGUGCGAUAGCGCCAACGUUCUCAACUAUGACACGCAAAACGCGUGCUCCGUUGAAUGGAGUUUAUUAUG [A60G G74A C85U C149U]	≤ -4.2
GGAUCUUCUCGAUCUAACAAAAAAGACAAAUCUGCCACAAAGCUUGAGAGCAUCUUCGGGUGCAGAGGCGGCAGCCUUCGGUGACGCGAUAGCGCGUACGUUCUCAACUAUGACACGCAAAACGCGUGCUCCGUUGAAUGGAGUUUAUCAUG [A60G G84A C96G A97U]	≤ -4.2
GGAUCUUCUCGAUCUAACAAAAAAGACAAAUCUGCCACAAAGCUUGAGAGCAUCUUCGGGUGCAGAGGCGGCAGCCUUCGGUGGCGCAAUAGCGCCAACGUUCUCAAAUAUGACACGCAAAACGCGUGCUCCGUUGAAUGGAGUUUAUCAUG [A60G G88A C108A]	≤ -4.2
GGAUCUUCUCGAUCUAACAAAAAAGACAAAUCUGCCACAAAGCUUGAGAGCAUCUUCGGGUGCAGAGGCGGCAGCCUUCGGUGGCGCCAUAGCGCCAACGUUCUCUACUAUGACACGCAAAACGCGUGCUCCGAUGAAUCGACUUUAUCAUG [A60G G88C A106U U134A G140C G143C]	≤ -4.2
GGAUCUUCUCGAUCUAACAAAAAAGACAAAUCUGCCACAAAGCUUGAGAGCAUCUUCGGGUGCAGAGGCGGCAGCCUUCGGUGGCGCGAUAUCGCCAACGUUCUCAACUAUGACACGGAAAACGCGGGCUCCGUUGAAUGGAGUUUAUCAGG [A60G G92U C118G U127G U151G]	≤ -4.2
GGAUCUUCUCGAUCUAACAAAAAAGACAAAUCUGCCACAAAGCUUGAGAGCAUCUUCGGGUGCAGAGGCGGCAGCCUUCGGUGGCGCGAUAGCACCAACGUUAUCAACUAUGACACGCAAAACGCGUGCUCCGUUGAAUCGAGUUUAUCAUG [A60G G94A C103A G140C]	≤ -4.2
GGAUCUUCUCGAUCUAACAAAAAAGACAAAUCUGCCACAAAGCUUGAGAGCAUCUUCGGGUGCAGAGGCGGCAGCCUUCGGUGGCGCGAUAGCACCAACGUACUCAACUAUGACACGCAAAAGGCGUGCUCCGUUGAAUGGAGUUUAUCAUG [A60G G94A U102A C123G]	-1.46
GGAUCUUCUCGAUCUAACAAAAAAGACAAAUCUGCCACAAAGCUUGAGAGCAUCUUCGGGUGCAGAGGCGGCAGCCUUCGGUGGCGCGAUAGCGCCAACCUUCUCAACUAUGACACGCAAAACGCGUGCUCCGUUGAAUGGAGUUUAUCAUG [A60G G100C]	≤ -4.2
